Experimental data from PubChem BioAssay AID1508623 (National Center for Advancing Translational Sciences (NCATS), 2021).
About 450 (0.94%) of roughly 48,000 compounds were called active. About 19% were inconclusive and are not listed. Calls follow the shape of the dose curve; as a rule, active = well fitted inhibition curve with a large enough effect; inconclusive = small, poorly fitted or top-dose-only effect; inactive = no such curve, though single readings can be large or run the other way. Some of the results follow.

Assay: Primary qHTS for Identification of Small Molecule Inhibitors of Huntingtin Promoter Activity; also: nearly all actives have a fitted effect of over 50% in size
Conditions: HEK293 HTT promoter firefly luciferase reporter (activity 0% = vehicle and -100% = no light), 24 h; series mostly up to 57.5 µM; activity change, negative = inhibition: at the top concentration
Outline: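 Firefly luciferase signal from promoter-reporter HEK293 cells was scaled between vehicle (0%) and zero RLU (-100%). Compounds were tested at final concentrations of up to 57.5 uM over 24 h at 37 degrees C. PTC124 at 50 uM final served as control inhibitor.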

Activity change, negative = inhibition, inactive:
O=C(CCc1ccccc1)NCc1ccc2c(c1)CCN2C(=O)c1ccc(Cl)cc1 -5.91%
CCOc1ccc(CCNC(=O)c2cc3c(=O)n(C)c4ccccc4c3n2C)cc1 -5.77%
CCc1cccc(NC(=O)CC2Oc3ccc(C)cc3NC2=O)c1 (stereo not given) -8.91%
O=C(NCCC1=CCCCC1)c1ccc2c(c1)N(Cc1ccc(Cl)cc1)C(=O)c1ccccc1S2=O (stereo not given) -18.3%
N#Cc1c(N(CC(=O)O)CC(=O)O)sc(C(=O)O)c1CC(=O)O -11.2%
COc1ccc(-n2c(=O)c3c(c4cc(OC)ccc4n3C)n(C)c2=O)cc1 -11.2%
CCOc1ccc(NC(=O)Cn2cc(C(=O)c3ccc(CC)cc3)c(=O)c3ccc(C)nc32)cc1 3.11%
Cc1ccc(-n2c(=O)c3cccnc3n2CC(=O)NCc2ccc(F)cc2)cc1C -22.2%
Cc1ccc(CNC(=O)CN2CCCN(Cc3ccc(F)cc3)S2(=O)=O)cc1 -20%
CCOC(=O)C1=C(C)NC(=S)NC1c1cccc(O)c1 (stereo not given) -8.71%
CCN(CC)S(=O)(=O)c1ccc2c(c1)N(CC(=O)Nc1c(C)cc(C)cc1C)C(=O)C1CCCN21 (stereo not given) -7.55%
O=C(COc1ccccc1F)Nc1ccc(Cl)c(-c2nc3ccccc3[nH]2)c1 18.9%
COc1ccc(NC(=O)CSc2nccn2Cc2ccco2)cc1OC -10.5%
Cc1cc(C)c(/C=C/c2onc(C)c2S(=O)(=O)N2CCC(C(=O)Nc3ccc(Cl)c(C(F)(F)F)c3)CC2)c(C)c1 -22.1%
COc1ccccc1NC(=O)c1nc(SCc2ccc(F)cc2)ncc1Cl -6.61%
CCOC(=O)c1cnc2ccccc2c1Nc1ccc(N2CCOCC2)cc1 -12.8%
CCc1ccc(N2CCn3c2nc2c3c(=O)n(CCc3ccccc3)c(=O)n2C)cc1 -14.5%
Cc1cccc(Cn2c(=O)n(-c3ccc(Cl)c(Cl)c3)c(=O)c3c(C)c(C)sc32)c1 -6.38%
CCOCCc1nnc(NC(=O)C(=O)c2cc(C)n(-c3cccc(Cl)c3)c2C)s1 -14.3%
Clc1ccc(-c2nc3ccccn3c2Nc2ccc3c(c2)OCCO3)s1 13.8%
COc1ccc(NC(=O)c2sc3nc(C)c(C(=O)Nc4ccc(C)cc4C)c(-c4cccs4)c3c2N)cc1 -25.4%
CCOc1ccc(NC(=O)C(=O)NCCc2csc(-c3ccc(C)cc3)n2)cc1 7%
CCN(Cc1ccccc1)C(=O)Cn1c(=O)oc2cc(S(=O)(=O)N3CCCCCC3)ccc21 -26.7%
Cc1ccccc1CSc1cn(CC(=O)N2CCCC2)c2ccccc12 18.9%
CCC(=O)N1CCc2cc(S(=O)(=O)NCCC(=O)Nc3ccc(OC)c(OC)c3)ccc21 -9.41%
COc1cc(-c2nnn(CC(=O)NCc3ccccc3)n2)cc(OC)c1OC -4.72%
COc1ccc(NC(=O)CSc2nnc3c(C)cc4ccccc4n23)cc1 -0.666%
Cc1cnc2c(c1SCC(=O)NCc1ccc(F)cc1)c(=O)n(C)c(=O)n2C -10.7%
Cc1cccc(N2CCN(c3ncnc4c3c(-c3ccccc3)cn4-c3ccccc3)CC2C)c1 (stereo not given) -17.9%
CCOc1ccc(-c2cc(C(=O)N3CCN(c4ccc(C)cc4)C(C)C3)c3ccccc3n2)cc1 (stereo not given) 8.91%
CC(C)(C)c1ccc(OCC(=O)NC(Cc2c[nH]c3ccccc23)C(=O)O)cc1 (stereo not given) -0.839%
COc1cccc(CNC(=O)CCCn2c(=O)c3cccn3c3cccnc32)c1OC 10.9%
CCCCn1nc(NC(=O)c2cccc(Cl)c2)c2cc3ccc(C)cc3nc21 -19.1%
CC(=O)Nc1ccc(NS(=O)(=O)c2cc3c4c(c2)CC(=O)N4CCC3)cc1 -1.47%
COc1cc(C(=O)NCCS(=O)(=O)N2CCN(c3ccccc3)CC2)cc(OC)c1OC -16.7%
COc1ccc(-c2cc3nc(C)c(CCC(=O)N4CCN(c5cc(C)ccc5C)CC4)c(C)n3n2)c(OC)c1 -19.6%
CCOc1ccc(NC(=O)CN2CCN(CC(=O)Nc3ccc(OC)cc3)CC2)cc1 -2.72%
COc1ccccc1/C=C/c1nc(C#N)c(N2CCN(c3ccccc3)CC2)o1 -8.64%
CN(C(=O)CSc1nc2ccc(NC(=O)COc3ccccc3Cl)cc2s1)c1ccccc1 -0.151%
Cc1ccc(Nc2c(-c3ccccc3O)nc3cc(C)ccn23)cc1 -28.4%
COc1ccc(-c2cc(C(F)(F)F)nc(NCCc3ccccc3)n2)cc1 7.76%
Cc1c(-c2ccc(Cl)cc2)c(=O)oc2c(CN3CCOCC3)c(O)ccc12 -28.7%
O=C(NCCc1ccccc1)c1cc2sccc2n1Cc1ccc(F)cc1 -8.51%
COC(=O)c1cccc(CN2C(=O)SC(Nc3ccc(Br)cc3)C2=O)c1 (stereo not given) -22.1%
Cc1ccc(NC(=O)CSc2nc3ccc(NC(=O)c4ccco4)cc3s2)c(C)c1 -12.4%
CNC(=O)c1c(NC(=O)c2ccc(S(=O)(=O)N3CCCC(C)C3)cc2)sc2c1CCC2 (stereo not given) -7.05%
CCCCOc1ccc(C(=O)Nc2onc3c2CCCC3)cc1 37.8%
Cc1cc(C)cc(NC(=O)Nc2cccs2)c1 24.7%
CCOC(=O)CN1C(C(=O)c2ccccc2)=C(OC(=O)c2ccccc2)c2ccccc2S1(=O)=O 12.9%
Cc1ccc(C)c(NC(=O)Cn2cnc3nc4c(cc3c2=O)CCCC4)c1 -4.59%
CCOC(=O)c1cccc(NC(=O)c2ccc3snnc3c2)c1 -3.52%
CCc1ccc(-n2c(N3CCN(c4cccc(C)c4C)CC3)nc3ccccc3c2=O)cc1 -28.3%
Cc1ccc(Nc2nc(N)nc(N)c2S(=O)(=O)c2ccccc2)cc1 -27%
COC(=O)c1sccc1S(=O)(=O)N(CC(=O)NCc1ccccc1)c1ccc(C)cc1 -19.9%
CC1CC(=O)NN=C1c1ccc(NCC(C)(C)NCC(O)COc2cc(Cl)ccc2C#N)cc1 (stereo not given) 4.76%
COc1ccccc1C(=O)Nc1nc(-c2ccc(Br)cc2)ns1 -4.03%
Cc1nc2ccn(Cc3cccnc3)c(=O)c2cc1C(=O)N1CCN(c2ccccc2)CC1 9.14%
Oc1ccccc1-c1nnco1 12.9%
CCOc1ccc(-c2cc(C(=O)NCCc3ccccc3)c3c(-c4ccc(C)cc4)[nH]nc3n2)cc1 18.4%
CCN(CC)c1cc(C)c2cc(NC(=O)/C=C/c3ccccc3OC(C)C)ccc2n1 -17.6%
Cc1cc(C)c2c(=O)c3c(oc2c1)C(=O)N(Cc1ccco1)C3c1ccc(F)cc1 (stereo not given) -22.7%
CC(=O)N1CCc2c(sc3c2c(=O)n(-c2cccc(Cl)c2)c(=O)n3Cc2ccc(F)cc2Cl)C1 0%
Cc1nn(C)c2c1c(C(F)(F)F)cc(=O)n2CC(=O)N1CCN(c2ccccc2F)CC1 -2.1%
O=C(NCc1ccc2c(c1)CCN2C(=O)c1ccc(Cl)cc1)c1ccco1 -11.5%
CCOC(=O)c1c(NC(=O)/C=C/c2ccc(OCC)cc2)sc2c1CCCC2 -3.3%
O=C(Cn1c(=O)n(-c2ccccc2)c(=O)c2c3c(sc21)CCCC3)Nc1ccccc1 -14.4%
O=C(O)CSc1nnc(-c2ccc(O)cc2)o1 -14.8%
CCOC(=O)c1noc2nc(C)n(CC(=O)Nc3ccc(OC)c(Cl)c3)c(=O)c12 1.63%
Cc1cc(N2CCC(C(=O)Nc3ccc(Cl)cc3)CC2)n2nc(C)c(-c3ccc(Cl)cc3)c2n1 -10.3%
CCOC(=O)CSc1nnc2n(-c3ccccc3)c(=O)c3c4c(sc3n12)COC(C(C)C)C4 (stereo not given) -0.755%
Cc1cc2c(cc3c(=O)n(CC(=O)NCc4ccccc4Br)ncn32)s1 1.76%
Cc1ccc(-n2nc(C)c3c(C(=O)O)cc(C)nc32)cc1 -15.4%
CC(CNC(=O)c1ccc2c(c1)nc1n2CCOC1)c1ccccc1 (stereo not given) 64.9%
CC(C)NC(=O)CSc1nc2ccccc2c(=O)n1Cc1ccc(C(=O)NC(C)C)cc1 1.59%
O=C(CCS(=O)(=O)c1cccc2nonc12)Nc1cccc(F)c1 -0.381%
O=C(CSc1nc(=O)[nH]c2c1CCC2)NCc1ccc(Cl)cc1 -9.24%
COc1ccc(CN(Cc2ccco2)c2cnc(S(C)(=O)=O)nc2C(=O)Nc2ccc(C)c(C)c2)cc1 -18.1%
COC(=O)c1ccc(C(=O)Nc2ccc(-c3nc4cc(NC(=O)c5ccc(C(=O)OC)cc5)ccc4o3)cc2)cc1 -0.0438%
CCSc1ncc(Cl)c(C(=O)Nc2ccc(S(=O)(=O)Nc3nccc(C)n3)cc2)n1 -15.2%
Cc1ccc(Cl)cc1NC(=O)Cn1cc2c(n1)CCCCC2 -6.16%
Nc1ccc(S(=O)(=O)Nc2nccs2)cc1 2.16%
O=C(CCC1N=C2c3ccccc3N=C(SCc3ccccc3Cl)N2C1=O)N1CCN(c2ccccc2)CC1 (stereo not given) -28%
COC(=O)c1ccc(NC(=O)c2cccc3c2C(=O)N(C2CCCCC2)C3)cc1 0.925%
COC(=O)CC1Oc2ccc(C)cc2-n2cc(-c3ccc(F)cc3)nc21 (stereo not given) -20.7%
COc1ccc(N2CCN(C(=O)c3cc(NS(=O)(=O)c4ccc(F)cc4)ccn3)CC2)cc1 -11.7%
Cc1ccc(C)c(N2CCN(C(=O)CCn3c(=O)[nH]c4ccccc4c3=O)CC2)c1 -27.8%
Cc1ccc(C)c(NC(=O)CSc2ncc3c(n2)-c2cc(Cl)ccc2N(Cc2ccccc2F)S3(=O)=O)c1 -12%
CC1(C)CC(=O)c2cc(-c3nc(-c4ccc(Cl)cc4)cs3)c(=O)n(-c3ccc(F)cc3)c2C1 -13.2%
CC(CNC1CCCCC1)OC(=O)c1ccccc1 (stereo not given) -6.05%
COc1ccc(-c2oc3ncn4nc(-c5ccccc5Cl)nc4c3c2-c2ccc(OC)cc2)cc1 59.3% [at 11.5 µM]
Cc1cc(Cl)ccc1NC(=O)CCn1nc(C)c2c(C)n(-c3ccccc3)nc2c1=O -15.4%
Cc1ccc(CNC(=O)CSc2nc3n[nH]c(C)c3c(=N)n2-c2cccc(C)c2)cc1 -26.8%
CCOc1ccc(NC(=O)Cn2cc(S(=O)(=O)N3CCN(c4ccccc4F)CC3)c3ccccc3c2=O)cc1 -2.33%
COc1ccc(-c2noc(-c3ccc(N4CCC(C)CC4)c([N+](=O)[O-])c3)n2)cc1OC -7.56%
COc1ccc(N(CC(=O)N2CCN(c3ccc(F)cc3)CC2)S(=O)(=O)c2c(C)n[nH]c2C)cc1 -16.1%
